Data published in PubChem BioAssay (NCI).
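Growth conditions: 96-well plates. Treatment: test compound, 48 hours, 5 concentrations. Analysis: linear interpolation between bracketing concentrations; unreached endpoints set to highest concentration. At the TGI there is no net growth.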 A number of entries come with more than one value. This list holds those alone. The source may hold further records. A record mostly stands for its own series of concentrations, not given here; a value can be the end of its range.

Columns and labels:
Test in all cases: growth of human tumour cells (NCI), 48 h
IGROV1 ovarian = test system: IGROV1 ovarian
BT-549 breast = test system: BT-549 breast
NCI-H226 lung = test system: NCI-H226 lung
T-47D breast = test system: T-47D breast
SW-620 colon = test system: SW-620 colon

C[C@]12CC[C@H](OC3OC(O)C(O)C(O)C3O)C=C1CCC1C2CC[C@]2(C)[C@@H](c3ccc(=O)oc3)CC[C@]12O (stereo not given in full)
TGI (IGROV1 ovarian): 537 nM and 50 µM

CCCCCCCCCCCC[C@H](O)[C@H]1CC[C@H]([C@H](O)CCCC[C@H](O)CCCCC[C@@H](O)CC2=C[C@H](C)OC2=O)O1
TGI (BT-549 breast): 2.14 µM and 26.7 µM

CCCCCc1c(C)[nH]c(/C=C2\N=C(c3ccc[nH]3)C=C2Oc2ccccc2)c1C
TGI (NCI-H226 lung): 108 nM and 3.21 µM
TGI (T-47D breast): 76.8 nM and 1.22 µM
TGI (SW-620 colon): 1.01 µM and 74.8 nM
